The text below walks through data of PMC5892938.

The other results are listed elsewhere or left out. At the low end of the ranking, values are background and their order means little.

The target of the assay is GST-SBP-SLBP (stem-loop binding protein) (UniProt Q14493). Description: targeted RNA Bind-n-Seq.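 Further: DESeq read counts versus GST-SBP nonspecific binding control pulldown.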 As to conditions: RBNS binding buffer: 25 mM Tris pH 7.5, 150 mM KCl, 3 mM MgCl2, 0.1% Tween, 0.5 mg/mL BSA, 1 mM DTT; 27 nM protein, 750 pM RNA pool; temperature not stated; high values mean tight binding.
Consider “GGUCACGUCUCAAUCAACUCAACUUCCAGGGAAAUCCCUGGCAAAUUCAACAGCUCGCAGUCAAG”, for which the binding signal (log2 fold change) was -0.0546.
The same measure for “GGUCACGUCUCAAUCAACUCAAAAGAGGGGGGGAAAACCCCUUUACCCUCGUCCUCAACAGCUCGCAGUCAAG”: 0.168.
On to “GGUCACGUCUCAAUCAACUCUCAAGAGGGGGGGAAAACCCCUUUGCCCUCACUUUCAACAGCUCGCAGUCAAG”, for which the binding signal (log2 fold change) worked out at 0.453.
The figure for “GGUCACGUCUCAAUCAACUCAAUCUCCAGGGAAAUCCCUGGCUAUGUCAACAGCUCGCAGUCAAG” is 0.0201.
The figure for “GGUCACGUCUCAAUCAACUCAAUCUCAGGAGUUUUCUCCUGUAUACUCAACAGCUCGCAGUCAAG” is 0.429; for “GGUCACGUCUCAAUCAACUCUAUCCCAGGAGUUUUCUCCUGUUUAUUCAACAGCUCGCAGUCAAG” it is 0.214.
The same measure for “GGUCACGUCUCAAUCAACUCUUCCUCAGGAGUUUUCUCCUGUUAUUUCAACAGCUCGCAGUCAAG”: 0.107.
For “GGUCACGUCUCAAUCAACUCAAUCCCCAGGGAAACCCCUGGCAUAGUCAACAGCUCGCAGUCAAG”, the binding signal (log2 fold change) turned out to be 0.0243.
“GGUCACGUCUCAAUCAACUCUAUUCCCAGGGAAAACCCUGGCAUUUUCAACAGCUCGCAGUCAAG”: the binding signal (log2 fold change) was determined as 0.49.
The same measure for “GGUCACGUCUCAAUCAACUCAUCCUCAGGAGUUUCCUCCUGUUUUCUCAACAGCUCGCAGUCAAG”: 0.0105.
Take “GGUCACGUCUCAAUCAACUCUUUUCCAGGAGUUUCCUCCUGCUAAUUCAACAGCUCGCAGUCAAG”: the binding signal (log2 fold change) amounted to 0.115.
The figure for “GGUCACGUCUCAAUCAACUCAUUCUCCAGGGAAAGCCCUGGCAAUUUCAACAGCUCGCAGUCAAG” is 0.0977; for “GGUCACGUCUCAAUCAACUCUUUCCCCAGGGAAAGCCCUGGUUAAUUCAACAGCUCGCAGUCAAG” it is 0.0135.
Regarding “GGUCACGUCUCAAUCAACUCAACUCCCAGGGAAAACCCUGGCAUUUUCAACAGCUCGCAGUCAAG”, the binding signal (log2 fold change) is -0.00339.
The same measure for “GGUCACGUCUCAAUCAACUCAUCUCCCAGGGAAAACCCUGGUUUUUUCAACAGCUCGCAGUCAAG”: -0.108; for “GGUCACGUCUCAAUCAACUCUACUCCCAGGGAAACCCCUGGUAUUUUCAACAGCUCGCAGUCAAG”: -0.0341; for “GGUCACGUCUCAAUCAACUCCUAAGAGGGGGGGAAAACCCCUUUACCCUCAAUUUCAACAGCUCGCAGUCAAG”: -0.0542.
The figure for “GGUCACGUCUCAAUCAACUCACUCGAGGGGGGGAAAACCCCUUUACCCUCACAAUCAACAGCUCGCAGUCAAG” is -0.266; for “GGUCACGUCUCAAUCAACUCAUCCUCCAGGGAAAGCCCUGGUAUUCUCAACAGCUCGCAGUCAAG” it is 0.104; for “GGUCACGUCUCAAUCAACUCUUUCCCCAGGGAAAACCCUGGUAAUCUCAACAGCUCGCAGUCAAG” it is 0.26.
The figure for “GGUCACGUCUCAAUCAACUCUAUCCCAGGAGUUUUCUCCUGUUAUUUCAACAGCUCGCAGUCAAG” is -0.14; for “GGUCACGUCUCAAUCAACUCUUUAGAGGGGGGGAAAACCCCUUUGCCCUCCGUAUCAACAGCUCGCAGUCAAG” it is -0.208.
Regarding “GGUCACGUCUCAAUCAACUCAACAGAGGGGGGGAAAACCCCUUUACCCUCCACCUCAACAGCUCGCAGUCAAG”, the binding signal (log2 fold change) turned out to be 0.265.
For the sequence “GGUCACGUCUCAAUCAACUCCUACGAGGGGGGGAAAACCCCUUUACCCUCAACUUCAACAGCUCGCAGUCAAG”, the binding signal (log2 fold change) was -0.294.
The same measure for “GGUCACGUCUCAAUCAACUCGCAAGAGGGGGGGAAAACCCCUUUACCCUCCAAUUCAACAGCUCGCAGUCAAG”: -0.0707.
Consider “GGUCACGUCUCAAUCAACUCAAUCUCCAGGGAAAACCCUGGUUAAUUCAACAGCUCGCAGUCAAG”, for which the binding signal (log2 fold change) was -0.0359.
The same measure for “GGUCACGUCUCAAUCAACUCAAGGUCAGGAGUUUACUCCUGCAAAUUCAACAGCUCGCAGUCAAG”: -0.161; for “GGUCACGUCUCAAUCAACUCUUCGUCAGGAGUUUUCUCCUGUAUACUCAACAGCUCGCAGUCAAG”: 0.0793; for “GGUCACGUCUCAAUCAACUCAGUUUCCAGGGAAAACCCUGGCUUUCUCAACAGCUCGCAGUCAAG”: 0.31.
The figure for “GGUCACGUCUCAAUCAACUCAUCUCCCAGGGAAAUCCCUGGCUUAUUCAACAGCUCGCAGUCAAG” is 0.417; for “GGUCACGUCUCAAUCAACUCAUUCUCAGGAGUUUCCUCCUGUAAUCUCAACAGCUCGCAGUCAAG” it is 0.0777; for “GGUCACGUCUCAAUCAACUCAUCAGAGGGGGGGAAAACCCCUUUACCCUCCAUCUCAACAGCUCGCAGUCAAG” it is -0.151.
For the sequence “GGUCACGUCUCAAUCAACUCUAUUCCAGGAGUUUUCUCCUGCAUUCUCAACAGCUCGCAGUCAAG”, the binding signal (log2 fold change) is 0.02.
The same measure for “GGUCACGUCUCAAUCAACUCAUCCCCAGGAGUUUACUCCUGCUUACUCAACAGCUCGCAGUCAAG”: 0.248.
As for “GGUCACGUCUCAAUCAACUCAGUUCCAGGAGUUUUCUCCUGCAUAUUCAACAGCUCGCAGUCAAG”, the binding signal (log2 fold change) is -0.148.
The figure for “GGUCACGUCUCAAUCAACUCAUUUCCCAGGGAAAGCCCUGGCUUAUUCAACAGCUCGCAGUCAAG” is 0.106.
The figure for “GGUCACGUCUCAAUCAACUCAUCCUCCAGGGAAAACCCUGGUAAACUCAACAGCUCGCAGUCAAG” is -0.0493.
With “GGUCACGUCUCAAUCAACUCAUCUUCCAGGGAAAACCCUGGUUAAUUCAACAGCUCGCAGUCAAG”, the binding signal (log2 fold change) was -0.0913.
The figure for “GGUCACGUCUCAAUCAACUCAUCAGAGGGGGGGAAAACCCCUUUACCCUCACAAUCAACAGCUCGCAGUCAAG” is 0.0887; for “GGUCACGUCUCAAUCAACUCAGUCCCAGGAGUUUUCUCCUGCAAUCUCAACAGCUCGCAGUCAAG” it is -0.0619.
For the sequence “GGUCACGUCUCAAUCAACUCAUCUCCCAGGGAAAACCCUGGCAUUUUCAACAGCUCGCAGUCAAG”, the binding signal (log2 fold change) is -0.256.
For the sequence “GGUCACGUCUCAAUCAACUCAUUCUCCAGGGAAAGCCCUGGUUUAUUCAACAGCUCGCAGUCAAG”, the binding signal (log2 fold change) is -0.115.
The figure for “GGUCACGUCUCAAUCAACUCAAUCUCCAGGGAAAUCCCUGGUUUAUUCAACAGCUCGCAGUCAAG” is 0.00447; for “GGUCACGUCUCAAUCAACUCAUUAGAGGGGGGGAAAACCCCUUUGCCCUCAUCGUCAACAGCUCGCAGUCAAG” it is -0.627; for “GGUCACGUCUCAAUCAACUCAAUCUCAGGAGUUUCCUCCUGUUAACUCAACAGCUCGCAGUCAAG” it is 0.181.
The figure for “GGUCACGUCUCAAUCAACUCUUCUUCCAGGGAAAUCCCUGGUAUACUCAACAGCUCGCAGUCAAG” is 0.0374; for “GGUCACGUCUCAAUCAACUCUUUUCCCAGGGAAAACCCUGGCAAUUUCAACAGCUCGCAGUCAAG” it is -0.00751; for “GGUCACGUCUCAAUCAACUCAGUCCCAGGAGUUUGCUCCUGCAUAUUCAACAGCUCGCAGUCAAG” it is 0.0033.
The same measure for “GGUCACGUCUCAAUCAACUCCUUCGAGGGGGGGAAAACCCCUUUACCCUCAACAUCAACAGCUCGCAGUCAAG”: -0.116; for “GGUCACGUCUCAAUCAACUCUUUCGAGGGGGGGAAAACCCCUUUACCCUCACACUCAACAGCUCGCAGUCAAG”: 0.0756.
“GGUCACGUCUCAAUCAACUCAAUUUCAGGAGUUUGCUCCUGCUAAUUCAACAGCUCGCAGUCAAG”: the binding signal (log2 fold change) stood at 0.108.
The same measure for “GGUCACGUCUCAAUCAACUCAAUUCCCAGGGAAACCCCUGGCAAAUUCAACAGCUCGCAGUCAAG”: -0.0961; for “GGUCACGUCUCAAUCAACUCAUCCUCAGGAGUUUUCUCCUGUAUUUUCAACAGCUCGCAGUCAAG”: 0.254; for “GGUCACGUCUCAAUCAACUCAUCGCCAGGAGUUUUCUCCUGCAUAUUCAACAGCUCGCAGUCAAG”: -0.05.
The figure for “GGUCACGUCUCAAUCAACUCUAUCGCAGGAGUUUUCUCCUGGUUUUUCAACAGCUCGCAGUCAAG” is -0.0572; for “GGUCACGUCUCAAUCAACUCAAUCCCAGGAGUUUUCUCCUGCAAUCUCAACAGCUCGCAGUCAAG” it is 0.0531; for “GGUCACGUCUCAAUCAACUCAAUCCCAGGAGUUUUCUCCUGUAAUCUCAACAGCUCGCAGUCAAG” it is 0.0189.
On to “GGUCACGUCUCAAUCAACUCAUUUUCCAGGGAAAUCCCUGGCGUAUUCAACAGCUCGCAGUCAAG”, for which the binding signal (log2 fold change) was determined as 0.0186.
The figure for “GGUCACGUCUCAAUCAACUCUUCCCCCAGGGAAAACCCUGGCAAUUUCAACAGCUCGCAGUCAAG” is -0.0532; for “GGUCACGUCUCAAUCAACUCUACGGCAGGAGUUUACUCCUGGAAUUUCAACAGCUCGCAGUCAAG” it is 0.0671; for “GGUCACGUCUCAAUCAACUCCUCAGAGGGGGGGAAAACCCCUUUACCCUCCGUAUCAACAGCUCGCAGUCAAG” it is 0.173.
The same measure for “GGUCACGUCUCAAUCAACUCUAGUCCCAGGGAAAACCCUGGUUAUUUCAACAGCUCGCAGUCAAG”: -0.261.
With “GGUCACGUCUCAAUCAACUCAAUUUCCAGGGAAACCCCUGGCAUACUCAACAGCUCGCAGUCAAG”, the binding signal (log2 fold change) was -0.288.
The same measure for “GGUCACGUCUCAAUCAACUCUAUUUCCAGGGAAAUCCCUGGCAUUUUCAACAGCUCGCAGUCAAG”: 0.0836.
With “GGUCACGUCUCAAUCAACUCUCUGGAGGGGGGGAAAACCCCUUUACCCUCAACAUCAACAGCUCGCAGUCAAG”, the binding signal (log2 fold change) is -0.497.
On to “GGUCACGUCUCAAUCAACUCAUCCUCAGGAGUUUCCUCCUGCAUUUUCAACAGCUCGCAGUCAAG”, for which the binding signal (log2 fold change) turned out to be 0.0885.
The figure for “GGUCACGUCUCAAUCAACUCAUCCCCCAGGGAAAACCCUGGCAUUCUCAACAGCUCGCAGUCAAG” is -0.11; for “GGUCACGUCUCAAUCAACUCAAUCCCCAGGGAAAACCCUGGUAUACUCAACAGCUCGCAGUCAAG” it is 0.0502.
The same measure for “GGUCACGUCUCAAUCAACUCUUUUCCCAGGGAAAGCCCUGGCUUACUCAACAGCUCGCAGUCAAG”: 0.187.
The same measure for “GGUCACGUCUCAAUCAACUCAAUUCCCAGGGAAAGCCCUGGCUAUCUCAACAGCUCGCAGUCAAG”: 0.166; for “GGUCACGUCUCAAUCAACUCUUCGUCAGGAGUUUUCUCCUGUAAUCUCAACAGCUCGCAGUCAAG”: -0.221; for “GGUCACGUCUCAAUCAACUCAUUCUCAGGAGUUUGCUCCUGCUUACUCAACAGCUCGCAGUCAAG”: 0.11.
“GGUCACGUCUCAAUCAACUCGUUUUCAGGAGUUUACUCCUGCUAUUUCAACAGCUCGCAGUCAAG”: the binding signal (log2 fold change) came out at 0.0776.
“GGUCACGUCUCAAUCAACUCUACUCCCAGGGAAACCCCUGGCAAUCUCAACAGCUCGCAGUCAAG”: the binding signal (log2 fold change) was -0.157.
